From PubChem BioAssay AID328 (DTP/NCI, 2004) come the findings set out here.

The assay relates to BDF1 mice, P388 leukemia ip, median survival T/C. As to the kind of experiment: NCI In Vivo Anticancer Drug Screen. Data for tumor model P388 Leukemia (intraperitoneal) in B6D2F1 (BDF1) mice. Particulars: endpoint: median survival time, higher = longer survival. In a few lines:
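Reported as T/C, where T is the survival measurement in dosed animals and C the same measurement in vehicle controls.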

The structures appear in SMILES notation. Inconclusive results and toxic doses are left out. Some entries of the source have several records that differ or are many. Only these are listed. The source may hold further records. The values listed for one entry differ for a reason that is not stated; dose, time, organism, isomer or construct need not be as stated for each record. Signs of the kind (2×) count equal records among those shown.

For the compound `C[n+]1cccc2c3ccccc3c(-c3ccccc3)cc21`, the T/C (dose: 25.0 mg/kg/injection, schedule: Q01DX009 (ip), vehicle: water) is 95 % of control and 158 % of control.

Regarding `COc1cc(C(=O)c2cocc2C(=O)c2ccc3c(c2)OCO3)cc(OC)c1OC`, where the note is “dose: 400.0 mg/kg/injection, schedule: Q01DX010 (ip), vehicle: saline”, the T/C is 113 % of control and 156 % of control.

Consider `COC(=O)[C@@H](O)[C@](O)(CCC(C)C)C(=O)O[C@@H]1C(OC)=C[C@]23CCCN2CCc2cc4c(cc2[C@H]13)OCO4`, for which the T/C (dose: 4.0 mg/kg/injection, schedule: Q01DX009 (sc), vehicle: saline) is given as 120 % of control, 150 % of control, 161 % of control.

Turning to `Cn1cnc([N+](=O)[O-])c1Sc1nc(N)nc2c1ncn2C1CC(O)C(CO)O1` (stereo unspecified), for the setting “dose: 100.0 mg/kg/injection, schedule: Q01DX009 (ip), vehicle: saline”, the T/C was 107 % of control (2×) and 156 % of control.

Regarding `COc1cccc2c1C(=O)c1c(O)c3c(c(O)c1C2=O)C[C@@](O)(C(=O)CO)C[C@@H]3OC1CC(N)C(O)C(C)O1` (stereo partly specified), the T/C (dose: 3.0 mg/kg/injection, schedule: Q04DX003 (ip), vehicle: saline) was 94 % of control and 360 % of control.

On to `CCOC(=O)Nc1nc(Cl)c(Cl)nc1Cl`, for which, where the note is “dose: 100.0 mg/kg/injection, schedule: Q04DX003 (ip), vehicle: water”, the T/C was 98 % of control and 200 % of control.
